# Results as given in the supplement of paper PMC8047034.
# Where a name gives a salt, the structure may show the parent alone. Some of the results follow. Many values rest on one well or one pass, so single values are uncertain.
# What was measured:
# OVCAR4 = test: log2 surviving fraction (library drug vs vehicle, or drug + carboplatin vs carboplatin alone; relative to plate median); ovarian cancer lines: OVCAR4 is platinum-sensitive and Ov4Carbo platinum-resistant; higher = more cell survival; details: library drug concentration 10 µM, 7 days
# Ov4Carbo = test: as above; details: library drug concentration 10 µM, 7 days
SMILES,log2 surviving fraction (OVCAR4; carboplatin co-treatment 0 µM),log2 surviving fraction (OVCAR4; carboplatin co-treatment 5 µM),log2 surviving fraction (Ov4Carbo; carboplatin co-treatment 0 µM),log2 surviving fraction (Ov4Carbo; carboplatin co-treatment 5 µM)
CC[C@H]1OC(=O)C[C@@H](O)[C@H](C)[C@@H](O[C@@H]2O[C@H](C)[C@@H](O)[C@H](N(C)C)[C@H]2O)[C@@H](CCN2C[C@H](C)C[C@H](C)C2)C[C@@H](C)C(=O)/C=C/C(C)=C/[C@@H]1CO[C@@H]1O[C@H](C)[C@@H](O)[C@@H](OC)[C@H]1OC [Tilmicosin],-0.433,0.856,0.974,0.517
CCOC(=O)[C@H](CCc1ccccc1)N[C@@H](C)C(=O)N1Cc2cc(OC)c(OC)cc2C[C@H]1C(=O)O [Moexipril HCl],0.259,0.69,1.95,1.29
CC1=NN(c2ccc(C)c(C)c2)C(=O)/C1=N\Nc1cccc(-c2cccc(C(=O)O)c2)c1O,-5.11,-3.47,-4.46,-3.32
CC[C@@H]1C(=O)OC[C@@H]1Cc1cncn1C [Pilocarpine HCl],1.1,1.31,1.37,0.946
CC(C(=O)O)c1ccc(C(=O)c2cccs2)cc1 (stereo not drawn) [Suprofen (Profenal)],-7.09,-2.17,-0.458,-0.0835
CCOC(=O)n1ccn(C)c1=S [Carbimazole],0.339,0.374,0.157,0.392
Cc1cccc(CN2CCN(C(c3ccccc3)c3ccc(Cl)cc3)CC2)c1 (stereo not drawn) [Meclizine 2HCl],-0.462,1.38,0.22,1.11
CCC1=C[C@@H]2CN(C1)Cc1c([nH]c3ccccc13)[C@@](C(=O)OC)(c1cc3c(cc1OC)N(C)[C@H]1[C@@](O)(C(=O)OC)[C@H](OC(C)=O)[C@]4(CC)C=CCN5CC[C@]31[C@@H]54)C2 [Vinorelbine (Navelbine)],-5.79,-4.7,-6.09,-5.76
CC(=O)Nc1c(I)c(C(=O)N[C@H]2C(O)O[C@H](CO)[C@@H](O)[C@@H]2O)c(I)c(N(C)C(C)=O)c1I (stereo partly drawn) [Metrizamide],1.33,1.03,1.1,1.49
"CO[C@H]1/C=C/O[C@@]2(C)Oc3c(C)c(O)c4c(O)c(c(/C=N/N5CCN(C)CC5)c(O)c4c3C2=O)NC(=O)/C(C)=C\C=C\[C@H](C)[C@H](O)[C@@H](C)[C@@H](O)[C@@H](C)[C@H](OC(C)=O)[C@@H]1C [Rifampin (Rifadin, Rimactane)]",-0.0665,0.564,0.267,1.04
N[C@@H]1CN(c2c(F)cc3c(=O)c(C(=O)O)cn([C@@H]4C[C@@H]4F)c3c2Cl)CC12CC2 [Sitafloxacin hydrate],0.116,0.724,1.03,0.518
CCc1ccc(CCOc2ccc(CC3SC(=O)NC3=O)cc2)nc1 (stereo not drawn) [Pioglitazone hydrochloride (Actos)],0.347,-1.58,0.361,0.793
